# Data reported in PubChem BioAssay (NCATS).
# Several values for one entry are separate records, joined by “and”; a condition that tells them apart may be missing. Identical values can stand only once. The inconclusive results got no clear call from the source; some entries with a clear call stand among them for comparison. For some assays here: Potencies beside an inconclusive call are fits to weak or partial responses and may not hold up. For some assays here: A note “side channel” means that the fit belongs to a control or component signal, not to the main read-out. Activity calls are given as the source filed them. Unless noted, calls come from the whole dose curve.
# Assays:
# [1] = Quantitative high throughput screen for delayed death inhibitors of the malarial parasite plastid, 96 hour incubation (AID 488745; active = well fitted curve in the direction sought with a large enough effect; inconclusive = small, poorly fitted or top-dose-only effect, or another doubt; inactive = no such curve, though single readings can be large; an effect the other way counts as inactive or inconclusive; note: nearly all actives have a fitted effect of over 70% in size)
# In short: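 Growth of reporter-bearing P. falciparum in red cells is measured after 96 h with compound, covering two erythrocytic cycles. Luminescence from the integrated luciferase serves as the growth signal.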
# [2] = biological target: D(1A) dopamine receptor (Homo sapiens) (UniProt P21728); assay: HTS Assay for Allosteric Agonists of the Human D1 Dopamine Receptor: Primary Screen for Antagonists (AID 488983; active = well fitted curve in the direction sought with a large enough effect; inconclusive = small, poorly fitted or top-dose-only effect, or another doubt; inactive = no such curve, though single readings can be large; an effect the other way counts as inactive or inconclusive;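 note: calcium flux response to an EC80 dopamine challenge measured with no-wash dye; nearly all actives have a fitted effect of over 65% in size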)
# UniProt P21728, sequence (P21728 whole entry, looked up): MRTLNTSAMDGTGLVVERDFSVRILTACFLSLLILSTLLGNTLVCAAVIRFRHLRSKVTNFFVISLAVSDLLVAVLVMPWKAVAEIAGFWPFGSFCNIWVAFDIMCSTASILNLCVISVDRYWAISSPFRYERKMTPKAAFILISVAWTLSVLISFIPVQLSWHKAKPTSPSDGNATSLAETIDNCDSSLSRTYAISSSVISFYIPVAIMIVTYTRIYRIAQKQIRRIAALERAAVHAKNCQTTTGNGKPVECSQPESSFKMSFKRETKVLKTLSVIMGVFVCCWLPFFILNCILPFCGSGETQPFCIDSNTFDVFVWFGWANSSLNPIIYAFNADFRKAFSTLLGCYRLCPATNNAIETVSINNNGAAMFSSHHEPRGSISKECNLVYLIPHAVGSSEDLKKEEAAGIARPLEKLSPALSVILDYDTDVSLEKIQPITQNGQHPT
# In short: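 Screening of inducible HEK293 T-REx D1 cells: compound first, EC80 dopamine 180 s later, each phase read kinetically for calcium over 180 s.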
# [3] = biological target: ATPase family AAA domain-containing protein 5 (Homo sapiens) (UniProt Q96QE3); assay: Validation screen for small molecules that inhibit ELG1-dependent DNA repair in human embryonic kidney (HEK293T) cells expressing luciferase-tagged ELG1 (AID 493107; active = well fitted curve in the direction sought with a large enough effect; inconclusive = small, poorly fitted or top-dose-only effect, or another doubt; inactive = no such curve, though single readings can be large; an effect the other way counts as inactive or inconclusive; note: nearly all actives have a fitted effect of over 70% in size); details: HEK293T ELG1-luciferase level, luminescence, 5-fluorouridine co-treatment, 16 h; activity change, negative = decrease: at 46.1 µM (top of the series)
# UniProt Q96QE3, sequence (Q96QE3 whole entry, looked up, the tested form may be a part): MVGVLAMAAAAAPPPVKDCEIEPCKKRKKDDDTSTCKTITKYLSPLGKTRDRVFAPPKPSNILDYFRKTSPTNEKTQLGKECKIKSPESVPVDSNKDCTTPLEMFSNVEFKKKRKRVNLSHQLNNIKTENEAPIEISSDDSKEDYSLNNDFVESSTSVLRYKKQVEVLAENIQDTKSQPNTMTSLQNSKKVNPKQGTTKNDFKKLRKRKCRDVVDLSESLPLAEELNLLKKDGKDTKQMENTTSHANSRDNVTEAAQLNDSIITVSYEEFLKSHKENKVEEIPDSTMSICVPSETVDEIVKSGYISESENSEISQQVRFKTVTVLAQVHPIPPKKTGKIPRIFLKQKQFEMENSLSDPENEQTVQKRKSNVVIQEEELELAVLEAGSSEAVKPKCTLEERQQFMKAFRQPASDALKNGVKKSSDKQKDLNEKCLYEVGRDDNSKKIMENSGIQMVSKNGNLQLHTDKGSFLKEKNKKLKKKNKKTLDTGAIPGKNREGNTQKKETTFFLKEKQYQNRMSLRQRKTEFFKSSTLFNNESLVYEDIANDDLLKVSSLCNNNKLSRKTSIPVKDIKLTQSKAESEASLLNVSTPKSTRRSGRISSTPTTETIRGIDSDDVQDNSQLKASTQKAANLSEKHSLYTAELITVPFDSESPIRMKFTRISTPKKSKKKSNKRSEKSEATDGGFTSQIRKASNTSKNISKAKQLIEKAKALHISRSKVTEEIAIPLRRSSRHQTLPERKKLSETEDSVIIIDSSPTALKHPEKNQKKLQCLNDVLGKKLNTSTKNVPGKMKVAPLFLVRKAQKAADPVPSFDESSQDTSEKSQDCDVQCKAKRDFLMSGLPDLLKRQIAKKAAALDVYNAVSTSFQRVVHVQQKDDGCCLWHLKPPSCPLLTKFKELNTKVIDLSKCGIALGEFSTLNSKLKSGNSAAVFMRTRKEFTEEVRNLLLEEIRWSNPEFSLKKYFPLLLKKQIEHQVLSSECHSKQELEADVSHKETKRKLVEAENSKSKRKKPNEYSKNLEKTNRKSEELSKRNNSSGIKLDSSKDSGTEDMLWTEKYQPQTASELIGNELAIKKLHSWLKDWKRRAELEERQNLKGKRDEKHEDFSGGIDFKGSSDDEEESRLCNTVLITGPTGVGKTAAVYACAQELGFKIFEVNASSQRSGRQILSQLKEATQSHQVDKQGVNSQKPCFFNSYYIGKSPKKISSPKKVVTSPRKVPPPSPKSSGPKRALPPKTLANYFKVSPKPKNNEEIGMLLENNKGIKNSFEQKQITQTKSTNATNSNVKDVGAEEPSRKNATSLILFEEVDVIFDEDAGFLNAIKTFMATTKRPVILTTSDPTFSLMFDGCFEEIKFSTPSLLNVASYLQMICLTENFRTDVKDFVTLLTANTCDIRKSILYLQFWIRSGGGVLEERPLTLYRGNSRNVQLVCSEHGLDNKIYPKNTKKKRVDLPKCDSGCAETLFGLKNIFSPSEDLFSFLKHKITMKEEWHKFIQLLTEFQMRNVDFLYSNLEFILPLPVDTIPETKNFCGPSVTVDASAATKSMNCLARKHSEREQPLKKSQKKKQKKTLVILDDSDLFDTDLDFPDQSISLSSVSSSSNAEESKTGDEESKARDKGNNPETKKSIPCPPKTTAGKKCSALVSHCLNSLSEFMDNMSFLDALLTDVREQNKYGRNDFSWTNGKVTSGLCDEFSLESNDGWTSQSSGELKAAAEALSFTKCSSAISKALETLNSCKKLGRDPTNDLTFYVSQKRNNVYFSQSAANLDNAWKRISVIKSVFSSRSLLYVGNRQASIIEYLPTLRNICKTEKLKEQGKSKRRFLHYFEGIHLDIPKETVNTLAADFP
# In short: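 Quantitative HTS in HEK293T cells carrying luciferase-tagged ELG1, stimulated with 5-fluorouridine alongside compound for 16 hr. Loss of luciferase signal marks inhibition of ELG1 response.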
# [4] = Nrf2 qHTS screen for inhibitors: Validation (AID 493153; active = well fitted inhibition curve with a large enough effect in the main read-out, with a control signal flat, not every such curve was filed as active; inconclusive = small, poorly fitted or top-dose-only effect, or effect the other way, or a change in a side signal; inactive = no such curve, though single readings can be large or run the other way)
# In short: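 Dose-response validation uses reporter A549 cells with firefly luciferase under an antioxidant response element. Compounds stay on cells 18-24 h at 37°C, and luminescence indicates Nrf2-driven transcription.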
# [5] = biological target: Peroxisome proliferator-activated receptor delta (Homo sapiens) (UniProt Q03181); assay: qHTS assay for small molecule antagonists of peroxisome proliferator-activated receptor delta signaling (AID 588535; active = well fitted inhibition curve with a large enough effect in the signal ratio, with a control signal flat, not every such curve was filed as active; inconclusive = small, poorly fitted or top-dose-only effect, or effect the other way, or a change in a side signal; inactive = no such curve, though single readings can be large or run the other way; the % refers to the signal ratio); details: HEK293T PPARd-UAS-bla, beta-lactamase FRET ratio, 18 h; activity change, negative = inhibition: at 76.7 µM (top of the series)
# UniProt Q03181, sequence (Q03181 whole entry, looked up): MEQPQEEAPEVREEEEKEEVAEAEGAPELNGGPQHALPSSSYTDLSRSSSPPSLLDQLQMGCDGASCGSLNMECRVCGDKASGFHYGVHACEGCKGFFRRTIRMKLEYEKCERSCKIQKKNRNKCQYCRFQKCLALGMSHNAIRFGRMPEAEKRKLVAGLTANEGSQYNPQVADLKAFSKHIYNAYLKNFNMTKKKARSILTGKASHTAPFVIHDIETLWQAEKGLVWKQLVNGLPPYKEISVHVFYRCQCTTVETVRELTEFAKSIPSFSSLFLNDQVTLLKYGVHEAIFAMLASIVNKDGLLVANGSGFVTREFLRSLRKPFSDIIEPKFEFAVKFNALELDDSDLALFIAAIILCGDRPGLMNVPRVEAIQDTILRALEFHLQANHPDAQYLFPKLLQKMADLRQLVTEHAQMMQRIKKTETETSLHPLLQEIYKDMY
# In short: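 Cells were seeded at 4000 per well in assay medium containing 2% charcoal/dextran FBS and held 5 hrs at 37 C. Compounds were then added for 18 hrs. CCF4 substrate was applied for 2 hrs at room temperature before fluorescence reading.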
# [6] = biological target: Peroxisome proliferator-activated receptor gamma (Homo sapiens) (UniProt P37231); assay: qHTS assay for small molecule agonists of peroxisome proliferator-activated receptor gamma signaling (AID 588536; active = well fitted curve in the direction sought with a large enough effect in the signal ratio, with a control signal flat, not every such curve was filed as active; inconclusive = small, poorly fitted or top-dose-only effect, or effect the other way, or a change in a side signal; inactive = no such curve, though single readings can be large or run the other way; the % refers to the signal ratio;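 for activation: 0% = DMSO basal wells and 100% = rosiglitazone at 2 µM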); details: HEK293 PPARg-UAS-bla, beta-lactamase ratio, 16 h, percent of rosiglitazone response, DMSO as zero
# In short: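 Test agents, titrated, stimulated HEK293 UAS-bla cells overnight (16 h, 37 C). Substrate CCF4 was then added for two hours at room temperature before fluorescence reading.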
# [7] = biological target: Retinoic acid receptor RXR-alpha (Homo sapiens) (UniProt P19793); assay: qHTS assay for small molecule antagonists of retinoid X receptor alpha signaling (AID 588546; active = well fitted inhibition curve with a large enough effect in the signal ratio, with a control signal flat, not every such curve was filed as active; inconclusive = small, poorly fitted or top-dose-only effect, or effect the other way, or a change in a side signal; inactive = no such curve, though single readings can be large or run the other way; the % refers to the signal ratio); details: HEK293T RXRa-UAS-bla, beta-lactamase ratio, antagonist mode
# UniProt P19793, sequence (P19793 whole entry, looked up): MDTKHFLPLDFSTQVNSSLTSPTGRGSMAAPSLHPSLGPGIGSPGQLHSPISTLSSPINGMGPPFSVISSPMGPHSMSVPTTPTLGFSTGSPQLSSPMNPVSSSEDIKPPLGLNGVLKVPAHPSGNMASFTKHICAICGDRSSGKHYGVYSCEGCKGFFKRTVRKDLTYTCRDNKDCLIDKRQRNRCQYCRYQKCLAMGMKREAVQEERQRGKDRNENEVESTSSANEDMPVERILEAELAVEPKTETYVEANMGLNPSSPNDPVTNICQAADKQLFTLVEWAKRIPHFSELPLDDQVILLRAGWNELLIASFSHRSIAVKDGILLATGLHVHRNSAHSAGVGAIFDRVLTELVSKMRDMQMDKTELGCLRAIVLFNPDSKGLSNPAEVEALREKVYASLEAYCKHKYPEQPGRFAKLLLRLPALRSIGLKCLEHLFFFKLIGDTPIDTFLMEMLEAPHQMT
# In short: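 Beta-lactamase reporter inhibition, read as CCF4 fluorescence ratio (ex 405, em 460/530 nm) after 2 h at RT. HEK293T UAS-bla cells, 2500/well, were stimulated with 9-cis-RA at 500 or 100 nM final alongside test compound for 18 h at 37 C.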
# [8] = biological target: Thyroid hormone receptor beta (Homo sapiens) (UniProt P10828); assay: qHTS assay for small molecule antagonists of thyroid hormone receptor beta signaling (AID 588547; active = well fitted inhibition curve with a large enough effect in the signal ratio, with a control signal flat, not every such curve was filed as active; inconclusive = small, poorly fitted or top-dose-only effect, or effect the other way, or a change in a side signal; the % refers to the signal ratio;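 for activity change % (negative = inhibition): cells stimulated with 0.4 nM T3 agonist during compound exposure; % is set by controls: 0 for no effect and ±100 for the full control effect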); details: TR-UAS-bla HEK293, beta-lactamase ratio, antagonist mode, 18 h
# UniProt P10828, sequence (P10828 whole entry, looked up): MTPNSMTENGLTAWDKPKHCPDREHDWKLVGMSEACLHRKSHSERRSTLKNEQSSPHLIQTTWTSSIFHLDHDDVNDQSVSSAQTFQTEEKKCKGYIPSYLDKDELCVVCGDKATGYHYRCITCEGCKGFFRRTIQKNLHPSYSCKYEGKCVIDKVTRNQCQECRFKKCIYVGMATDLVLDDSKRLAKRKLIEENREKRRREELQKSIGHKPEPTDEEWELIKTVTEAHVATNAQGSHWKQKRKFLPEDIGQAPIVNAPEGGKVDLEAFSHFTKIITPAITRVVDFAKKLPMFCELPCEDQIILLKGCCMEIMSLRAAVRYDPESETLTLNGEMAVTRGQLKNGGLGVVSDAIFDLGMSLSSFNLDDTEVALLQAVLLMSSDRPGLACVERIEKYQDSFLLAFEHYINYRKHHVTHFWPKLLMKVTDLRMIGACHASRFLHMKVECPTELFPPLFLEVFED
# In short: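 TR-UAS-bla GripTite HEK293 cells in 2% charcoal/dextran FBS medium; compounds 0.59 nM to 92 uM with T3 at 0.4nM final, 18 h at 37 C. Beta-lactamase read by CCF4 fluorescence (460/530 nm); Hill fits gave IC50 and efficacy.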
# [9] = qHTS assay for small molecule agonists of the antioxidant response element (ARE) signaling pathway (AID 651741; active = well fitted activation curve with a large enough effect in the signal ratio; inconclusive = small, poorly fitted or top-dose-only effect, or effect the other way, or a change in a side signal; the % refers to the signal ratio); details: HepG2 ARE-bla reporter, beta-lactamase FRET ratio, 16 h; activation: at 96 µM (top of the series)
# In short: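 HepG2 ARE-bla cells plated at 2,000 cells/well and incubated 5 h at 37 C/5% CO2 received 23 nL compound in DMSO. After 16 h at 37 C, LiveBLAzer B/G FRET substrate was applied for 2 h at room temperature and fluorescence read.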
# [10] = qHTS assay for small molecule disruptors of the mitochondrial membrane potential - 1 hr assay (AID 651754); details: ratio change, negative = depolarisation: at 92.2 µM (top of the series); note: nearly all actives have a fitted effect of over 35% in size
# In short: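 Steps: seed HepG2 cells and let attach overnight; pin-transfer compound or vehicle; incubate 1 hr at 37C; add Mito-MPS dye for 30 min; read two-channel fluorescence for monomer and aggregate forms.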
# [11] = qHTS assay for small molecule disruptors of the mitochondrial membrane potential - 5 hr assay (AID 651755); details: JC-1-type ratio dye; ratio change, negative = disruption: at 92.2 µM (top of the series); note: nearly all actives have a fitted effect of over 40% in size
# In short: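 HepG2 cells (2,000/well), attached overnight, exposed to compound 5 hr at 37C, then Mito-MPS dye 30 min. Fluorescence read for monomers (490/535 nm) and aggregates (540/590 nm).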
# [12] = qHTS assay to identify small molecules that stimulate interleukin-8 (IL-8) secretion (AID 651758; active = well fitted activation curve with a large enough effect in the signal ratio; inconclusive = small, poorly fitted or top-dose-only effect, or effect the other way, or a change in a side signal; the % refers to the signal ratio; for activation: 0% is about no effect); details: HTRF ratio (665/615); activation: at 92.2 µM (top of the series)
# In short: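 THP-1 cells (2000/well) exposed to compound 16 h at 37 C; secreted IL-8 then detected by HTRF with cryptate- and XL665-labelled anti-IL-8 antibody pair after 1-3 h at room temperature.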
# [13] = qHTS assay for small molecule antagonists of the retinoid-related orphan receptor gamma (ROR-gamma) signaling pathway - cell viability counter screen (AID 720652; active = well fitted curve in the direction sought with a large enough effect in the repeat runs; inconclusive = weak or mixed curves; inactive = no such curve, though single readings can be large; an effect the other way counts as inactive or inconclusive;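 note: compound exposure lasted 16 hr before ATP read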)
# In short: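 Cytotoxicity is quantified via intracellular ATP (CellTiter-Glo luminescence) in doxycycline-induced CHO ROR response element-luciferase reporter cells treated with compound for 16 hr at 37 C, 5% CO2.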
# [14] = qHTS for Inhibitors of the Functional Ribonucleoprotein Complex (vRNP) of Lassa (LASV) Arenavirus: LASV Primary Screen - GLuc reporter signal (AID 1347082; calls by dose curve; tested in HEK293 reporter line; note: nearly all actives have a fitted effect of over 60% in size); details: LASV minigenome vRNP, Gaussia luciferase reporter; activity change, negative = inhibition: at 57.5 µM (top of the series) unless noted
# [15] = qHTS for Inhibitors of the Functional Ribonucleoprotein Complex (vRNP) of Lassa (LASV) Arenavirus: Viability assay - alamar blue signal for LASV Primary Screen (AID 1347083; calls by dose curve; tested in HEK293 reporter line; note: nearly all actives have a fitted effect of over 80% in size); details: cell viability, alamar blue fluorescence (LASV minigenome counter-screen); activity change, negative = reduced viability: at 57.5 µM (top of the series)
# [16] = biological target: Nucleoprotein (Lymphocytic choriomeningitis virus (strain Armstrong)) (UniProt P09992); assay: qHTS for Inhibitors of the Functional Ribonucleoprotein Complex (vRNP) of Lymphocytic Choriomeningitis Arenaviruses (LCMV): LCMV Primary Screen - GLuc reporter signal (AID 1347086); details: LCMV minigenome vRNP cell assay, Gaussia luciferase reporter; activity change, negative = inhibition: at 57.5 µM (top of the series) unless noted; note: nearly all actives have a fitted effect of over 70% in size
# UniProt P09992, sequence (P09992 whole entry, looked up): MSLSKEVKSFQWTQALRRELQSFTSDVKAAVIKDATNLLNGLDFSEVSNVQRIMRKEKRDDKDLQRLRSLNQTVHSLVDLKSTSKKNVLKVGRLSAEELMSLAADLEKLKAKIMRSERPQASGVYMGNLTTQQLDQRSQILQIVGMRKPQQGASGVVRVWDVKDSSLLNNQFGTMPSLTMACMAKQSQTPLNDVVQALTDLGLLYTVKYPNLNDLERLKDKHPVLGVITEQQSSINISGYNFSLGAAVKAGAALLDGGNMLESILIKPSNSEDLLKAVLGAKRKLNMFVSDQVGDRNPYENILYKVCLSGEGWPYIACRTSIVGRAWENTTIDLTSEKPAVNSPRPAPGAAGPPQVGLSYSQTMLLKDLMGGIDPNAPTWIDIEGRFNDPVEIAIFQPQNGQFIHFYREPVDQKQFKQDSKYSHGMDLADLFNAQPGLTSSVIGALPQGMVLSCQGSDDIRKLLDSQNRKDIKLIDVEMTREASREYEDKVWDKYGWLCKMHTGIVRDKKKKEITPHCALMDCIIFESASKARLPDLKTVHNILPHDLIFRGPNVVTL
# [17] = Primary qHTS for inhibitors of SARS-S pseudo-typed particle cell entry (AID 1479145); details: outcome: dose series up to 57.1 µM unless noted; note: nearly all actives have a fitted effect of over 45% in size
# [18] = Primary qHTS for inhibitors of MERS-S pseudo-typed particle cell entry (AID 1479149); details: outcome: dose series up to 57.1 µM unless noted; note: nearly all actives have a fitted effect of over 60% in size
# [19] = Cytotoxicity counterscreen for inhibitors of SARS-CoV-2 cell entry (AID 1645845); details: activity change, negative = cytotoxicity: at 57.1 µM (top of the series) unless noted; note: nearly all actives have a fitted effect of over 50% in size
# In short: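 HEK293-ACE2 cells (Expi293F stably expressing human ACE2) seeded overnight, then compound for 1 h plus 48 h at 37C. Viability as ATP content by luminescence; normalized to wells with cells and media-only wells.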
# [20] = Primary qHTS to identify inhibitors of SARS-CoV-2 cell entry (AID 1645846); details: activity change, negative = inhibition: at 57.1 µM (top of the series); note: nearly all actives have a fitted effect of over 45% in size
# In short: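 Luminescence readout (Bright-Glo luciferase) 48 h after pseudoparticle addition. HEK293-ACE2 cells, 1500/well; compound pre-incubation 1 h; Normalized to spike PP and bald PP.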
# [21] = activation: at 76.7 µM (top of the series)
# Potency is the fitted concentration of half-maximal effect; tags give direction and shape of the fitted curve or compound fluorescence and quenching.
smiles,measurement,setting,value
CC(=O)[C@H]1CC[C@H]2[C@@H]3CCC4=CC(=O)CC[C@]4(C)[C@H]3CC[C@]12C,Potency,[1],"inconclusive: 18.5 µM [inhibitor, single point]"
same,Potency,[2],"inconclusive: 14.1 µM [activator, single point]"
same,Potency,[3],"inconclusive: 25.9 µM [inhibitor, single point]"
same,Potency,[4],"inconclusive: 23.1 µM [inhibitor, partial curve, poor fit]"
same,Potency,[5],"inconclusive: 25.1 µM [fluorescent, side channel] and inconclusive: 44.7 µM [fluorescent, side channel] and inconclusive: 44.7 µM [fluorescent, side channel, partial curve, poor fit]"
same,Potency,[6]; [21],"inconclusive: 39.8 µM [side channel, rising, partial curve, poor fit]"
same,activation,[6]; [21],inconclusive: -16.8%
same,activation,[6]; at 76.7 µM (top of the series),inactive: -3.95%
same,Potency,[7],active: 35.5 µM
same,Potency,[8],"inconclusive: 44.7 µM [fluorescent, side channel, partial curve, poor fit] and inconclusive: 50.1 µM [inhibitor, single point]"
same,activity change % (negative = inhibition),[8],inactive: -26.1%
same,Potency,[9],active: 37.6 µM
same,Potency,[10],active: 11.9 µM
same,Potency,[11],"inconclusive: 28.2 µM [side channel, rising, partial curve] and inconclusive: 35.5 µM [side channel, rising, partial curve]"
same,Potency,[12],"inactive and inconclusive: 75 µM [activator, single point]"
same,Potency,[13],"inconclusive: 33.5 µM [cytotoxic, partial curve, poor fit]"
same,Potency,[14],"inconclusive: 39.8 µM [inhibitor, single point]"
same,Potency,[15],"inconclusive: 35.5 µM [inhibitor, single point]"
same,Potency,[16],"inconclusive: 44.7 µM [inhibitor, single point]"
same,Potency,[17],"inconclusive: 39.8 µM [inhibitor, partial curve, poor fit]"
same,Potency,[18],"inconclusive: 39.8 µM [inhibitor, single point]"
same,Potency,[19],"inconclusive: 28.2 µM [cytotoxic, partial curve, poor fit]"
same,Potency,[20],"inconclusive: 39.8 µM [inhibitor, single point]"
